From PubChem BioAssay (NCI)
Several values for one entry are separate records, joined by “and”; a condition that tells them apart may be missing. Identical values can stand only once.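 Five concentrations, 48 hours, 96-well plates. Abbreviation: GI50, concentration required for 50% inhibition of growth. At the TGI there is no net growth.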

System: NCI-H322M lung
Assay: inhibition of tumour cell growth, NCI panel, 48 h

| SMILES | TGI | GI50 |
| --- | --- | --- |
| CC(C)OC(=O)C1Cc2c([nH]c3ccccc23)C(c2ccccc2)N1 (centres undefined) | > 100 µM | – |
| Nc1nc2ccccc2c2c1S(=O)(=O)c1ccc(Cl)cc1C2=O | > 50 µM | 3.41 µM |
| Nc1[nH]c(=O)[nH]c(=O)c1Cc1cccc(Cl)c1 | > 100 µM | – |
| S=C(NCc1ccc2c(c1)OCO2)N1CCN(c2ncnc3c2oc2ccccc23)CC1 | > 100 µM | > 100 µM |
| Cc1ccc(-n2c(-c3cc4c([nH]c5ccccc54)c(-c4cccc(O)c4)n3)n[nH]c2=S)cc1 | 5.61 µM | 0.694 µM |
| O=C(Nc1nc2ncn(CCO)c2c(=O)[nH]1)c1ccccc1 | > 100 µM | – |
| OC1COC(OCc2ccccc2)C(O)C1O (centres undefined) | > 100 µM | – |
| COc1ccc(/C=C/c2cc(OC)c(OCc3ccccc3)c(OC)c2)cc1 | > 100 µM | – |
| CCC(=O)C(CCN1CCC(N2C(=O)C(CCC#N)c3ccccc32)CC1)(c1ccccc1)c1ccccc1 (centres undefined) | 67.6 µM | – |
| COc1cc(C(=O)/C=C/c2c(C(F)(F)F)nc3ccccn23)cc(OC)c1OC | 3.58 µM | 1.66 µM |
| O=S(=O)(O)c1ccc2cc3nn(-c4ccc(/C=C/c5ccc(-n6nc7cc8ccc(S(=O)(=O)O)cc8cc7n6)cc5S(=O)(=O)O)c(S(=O)(=O)O)c4)nc3cc2c1 | > 100 µM | 73.6 µM |
| Cc1cn(C2CC(O)C(Cn3nncc3Cn3ncc(=O)[nH]c3=O)O2)c(=O)[nH]c1=O (centres undefined) | > 100 µM | – |
| CC(C)(C)c1cc(C(=O)O)c2c(c1)C(=O)OC2(c1ccccc1)c1ccccc1C(=O)O (centres undefined) | > 100 µM | – |
| O=C1/C(=C/c2ccccc2[N+](=O)[O-])COc2ccc(O)cc21 | 21 µM | 8.67 µM |
| Cc1ccc(S(=O)(=O)NC(=O)OC23COCN2COC3)cc1 | > 100 µM | – |
| CC(=O)CC(=O)CCC(=O)Nc1cccc(C(F)(F)F)c1 | > 100 µM | – |
| CC1CCC2C(CN(CC3=C(C(F)(F)F)OC4OC5(C)CCC6C(C)CCC3C46OO5)CC3=C(C(F)(F)F)OC4OC5(C)CCC6C(C)CCC3C46OO5)=C(C(F)(F)F)OC3OC4(C)CCC1C32OO4 (centres undefined) | > 100 µM | 59.5 µM |
| O=C1C=C(C2=C(C3=CC(=O)c4ccccc4C3=O)C(=O)c3ccccc3C2=O)C(=O)c2ccccc21 | 31.6 µM | – |
| COC(=O)c1cc([N+](=O)[O-])cc([N+](=O)[O-])c1Cl | 33.5 µM | 17.6 µM |
| O=C1/C(=C/c2cccs2)NC(=S)N1CN1CCCCC1 | > 100 µM | – |
| CCN(Cc1ccc(F)cc1)c1ccc(CO)c(C(F)(F)F)c1 | 29.3 µM | 14.9 µM |
| O=C(c1cc(Cc2n[nH]c(=O)c3ccccc23)ccc1F)N1CCN(C(=O)C2CC2)CC1 | > 100 µM | > 100 µM |

| SMILES | TGI | GI50 |
| --- | --- | --- |
| COc1c(OC(C)C)cc2cc(O)c(C(=O)NC3Cc4ccc(c(Cl)n4)O[C@@H]4C=C5C#C/C(=C\C#CC6OC56C4OC4CC(C)(O)C(O)C(C)O4)C(OC4CC(O)C(N(C)C)C(C)O4)COC3=O)cc2c1OC (some centres undefined) | > 36.3 µM and 37.5 µg/mL | > 36.3 µM and 10.8 µg/mL |
| c1ccc(C2=C(c3ccccc3)Sc3nnc(CCCCCCCCc4nnc5n4NC(c4ccccc4)=C(c4ccccc4)S5)n3N2)cc1 | > 100 µM | – |
| COc1ccc(-n2c(C)nc3ccc(NC4OC(CO)C(O)C(O)C4O)cc3c2=O)cc1 (centres undefined) | > 100 µM | – |
| CNC(=O)N1N[C@H](c2ccccc2)[C@@H]1c1ccccc1 | > 100 µM | – |
| Nc1nc2ncn(CC(O)CO)c2c(=O)[nH]1 (centres undefined) | > 100 µM | – |
| O=C(Cc1ccccc1)C(c1ccccc1)S(=O)(=O)c1ccccc1 (centres undefined) | > 100 µM | – |
| C[C@H](NC(=O)CNC(=O)CCCCCC(=O)NCC(=O)N[C@@H](C)C(=O)OCc1ccccc1)C(=O)OCc1ccccc1 | > 100 µM | – |
| O=c1ccn(/C=C/C(O)C(O)CO)c(=O)[nH]1 (centres undefined) | > 100 µM | – |
| CN1CCC/C1=C1/C(=O)N(c2ccccc2)N=C1c1ccc[nH]1 | > 100 µM | – |
| COc1cccc(C(NC2=NCCC=N2)c2cc3c(cc2O)OCO3)c1O (centres undefined) | > 100 µM | – |
| CC(=O)[CH-]C(C)=O.CC(=O)[CH-]C(C)=O.CC(=O)[CH-]C(C)=O.[Ga+3] | > 100 µM | > 100 µM |
| CC1CCC2(C)C(CC=C(C=O)C2(O)C=O)C12CO2 (centres undefined) | 16 µM | – |
| CC1CC(N2CCOCC2)=Nc2ccccc2N1Cc1ccccc1 (centres undefined) | > 100 µM | – |
| O=C(c1c(O)cc(O)cc1O)C1Cc2ccccc21 (centres undefined) | > 100 µM | – |
| O=S(=O)(NCCCNc1nccc(-c2c(-c3ccc(F)cc3)nc3sccn23)n1)c1ccc(F)cc1 | > 100 µM | 25.4 µM |
| CC(C)N(Cc1ccc(F)cc1)c1ccc(CO)c(Cl)c1 | 21 µM | 7.19 µM |
| C[C@@H](NC(=O)c1ccc(F)cc1)c1ccc2c(c1)CCN2C(=O)C1CCOCC1 | > 100 µM | > 100 µM |
| O=c1[nH]c(=O)n(C2C(CO)OC(CO)C2O)cc1F (centres undefined) | > 100 µM | – |
| Cc1ccc(/C=C2\Cc3cc(C)c(C)cc3C2=O)c(C(=O)O)c1 | > 100 µM | – |
| CCCC(=O)OCOC(=O)N(C)N=Nc1ccc(C(=O)OCC)cc1 | > 100 µM | – |
| O=[N+]([O-])C(=C/c1cccc2ccccc12)/C(=C\c1cccc2ccccc12)[N+](=O)[O-] | 21.9 µM | – |
| CC1(C)[C@H](O)[C@H](F)C[C@@]2(C)Oc3ccc(C(=O)Nc4ccc5c(c4)NC(=O)C54CCN(CCCCC#N)CC4)cc3C[C@H]12 | 25.1 µM | 7.59 µM and 10.4 µM |

| SMILES | TGI | GI50 |
| --- | --- | --- |
| O=C(O)CCCc1ccccc1 | > 1000 µM | 289 µM and > 1000 µM |
| O=S(=O)(NCCCNc1cc(-c2cn(-c3ccccc3)nc2-c2cccc(O)c2)ccn1)c1ccc(F)cc1 | 46.4 µM | 4.7 µM |
| COc1ccc(OC)c(Cc2cnc3nc(N)nc(N)c3c2C)c1 | > 56.6 µM | – |
| COc1ccc(NC(=O)C(=O)Cc2nc3ccc(C(=O)c4ccccc4)cc3[nH]c2=O)c([N+](=O)[O-])c1 | > 100 µM | – |
| COc1ccc2c(c1)C(=O)c1c-2c(=O)n(CCCN(C)C)c2cc(OC)c(OC)cc12 | 27.8 µM | 14.7 µM |
| O=C(O)C12CC3CC(CC(F)(C3)C1)C2 | > 100 µM | – |
| C=C1C(=O)O[C@H]2[C@H]1CC/C(COC(=O)NCc1c[nH]c3ccc(F)cc13)=C\CC[C@@]1(C)O[C@@H]21 | 18.7 µM | 5.28 µM |
| O=C(O)CC12CC3CC(CC(O)(C3)C1)C2 | > 100 µM | – |
| CCc1ccccc1NC(=O)CC1NC(=O)CS1 (centres undefined) | > 100 µM | – |
| c1ccc(COC2C3COC(O3)C(OCc3ccccc3)C2OCc2ccccc2)cc1 (centres undefined) | > 100 µM | – |
| CC(C)CCC[C@@H](C)[C@H]1CC[C@H]2C3=C[C@H](OS(=O)(=O)O)[C@@]4(O)C[C@@H](O)CC[C@]4(C)[C@@]3(O)CC[C@]12C | > 100 µM | – |
| CC(=O)OCC(CC[CH2][Sn]([Cl])([Cl])[c]1ccccc1)OC(C)=O (centres undefined) | 35.8 µM | 15.5 µM |
| COC1=C2CC(C)CC(OC)C(OC(=O)CCCN)C(C)/C=C(\C)C(OC(N)=O)C(OC)/C=C\C=C(/C)C(=O)NC(=CC1=O)C2=O (centres undefined) | 47.6 µM | – |
| CSc1c(C#N)c(S)n(-c2ccc(Cl)cc2)c(=O)c1C#N | > 100 µM | – |
| O=C(c1ccco1)c1c(C(F)(F)F)n([O-])c2cc(F)c(F)cc2[n+]1=O | 4.59 µM | 1.81 µM |
| CCOC(=O)C(Cc1ccc(N(CCCl)CCCl)cc1)NC(=O)C(Cc1ccccc1)NC(C)=O (centres undefined) | > 0.573 µM | – |
| Cc1cc2c(c(=O)o1)C1=S(SC(c3ccccc3)=C1)S2 (centres undefined) | > 100 µM | – |
| C[P+]1(c2ccccc2)CCCCC1 | > 100 µM | – |
| Clc1ccc([I+]c2ccc(Cl)cc2Cl)c(Cl)c1 | 13.4 µM | 4.02 µM |
| C=C1C=CC2(Br)OC3CC(C)(Cl)C(Br)CC13C2(C)C (centres undefined) | 96.8 µM | – |
| Cc1ccc(S(=O)(=O)N2CC(CCN)c3ccccc32)cc1 (centres undefined) | 22.5 µM | – |
| COCCOCOC(C)(C)[C@H](CCO)O[Si](c1ccccc1)(c1ccccc1)C(C)(C)C | 31.5 µM | – |
